# Reference: the supplement of paper PMC11417369
# ± gives the standard deviation of the averaged measurements. This is one part of the list.
# System: PfAP2-G AP2 domain (GST-tagged)
# Test: gcPBM binding intensity (ln(normalized median fluorescence intensity)); higher = stronger DNA binding
# Outline: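 Alexa488 anti-GST antibody, scanned at 488 nm, detected GST-tagged P. falciparum DNA-binding domains that had been expressed in E. coli and incubated for 1 h on an Agilent 4 × 180k array. The array carried primer-extended double-stranded 36-bp intergenic genomic probes and negative controls. Binding intensity is the highest Masliner-normalised natural-log median intensity across replicate spots of either orientation of each probe.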
row,Sequence,gcPBM binding intensity (ln)
1,GATAAAATGGATGGATGTACATTATTTCCATATAAT [XGTACX_site7781],11 ± 0.47
2,ATATTACTTCCTAAGTGTACAAGTAAGGAGAAAAAA [XGTACX_site3921],11.3 ± 0.92
3,TGATAATTTTTTACATGTACAAGTTTGTTTTTGCAT [XGTACX_site125],11 ± 0.73
4,TTATCGGTATAATATAGTACATATAGATATATAATA [XGTACX_site1440],10.9 ± 0.71
5,TGAATATTTCTATATACACACATATAAATATAAATA [CACACA_site7593],9.85 ± 0.14
6,ATAATGGAGAAATAAGCATGCATTATATTATAAAAA [TGCATGCA_site325],9.66 ± 0.26
7,TAAAAGTTAATATAAACACACAAAAATTAATAAATA [CACACA_site6316],9.94 ± 0.028
8,AATTTCTATTTTGTGAGTACATACTCCTATTATATA [XGTACX_site3210],11.6 ± 1.1
9,CATATATTTTTGTATAGTACTTTTTTTATTCGTTTT [XGTACX_site1860],11.3 ± 0.91
10,AAAAAAAAAAAAATGTAATTTTTTAATTATTTATAT [GTGCAC_negctrl_site436],9.47 ± 0.11
11,AAAATACATAAACGTTCACACATTTAAGATAACGAG [CACACA_site5345],9.88 ± 0.16
12,GAATGCCTTGAAAATAGTACAATTAAGAAAAAATAC [XGTACX_site8002],11.2 ± 0.81
13,AATAAAAGATCATTTATTCTTTTTTTTCTTTTTAAA [CACACA_negctrl_site1256],9.51 ± 0.26
14,TAAATAAATTTATACACACACACACCGATATATATA [CACACA_site4622],9.975 ± 0.092
15,TGAATAAATATATATACACACATATATGTATATATT [CACACA_site1642],9.72 ± 0.071
16,TATATATATAATATATGTACATATTAATTATGTATA [XGTACX_site5366],11.3 ± 0.62
17,GAGTTTACACTCCCTTGTACATATTCATTTTTATTC [XGTACX_site5208],10.9 ± 0.5
18,AAAGAAATATATACAAAAATATGAACAATTTATTAT [XGTACX_negctrl_site78],10 ± 0.17
19,TTTTCGATGTTGGTAGGATGTATGGTACACGTAGTA [TGCATGCA_negctrl_site61],11.3 ± 0.74
20,TATGAAAATATATATTGTACAGAATCTATAAAAAAT [XGTACX_site8030],10.7 ± 0.42
21,TTTTATTTTATAAAAATAAAAAAAAAATTATTACAA [TGCATGCA_negctrl_site508],9.61 ± 0.15
22,TGAAAATAGTTAATTTGTACACAAAAATTAAGAAAA [XGTACX_site5794],11.2 ± 0.8
23,TATGATTGTTTACGTTGTACAGCTGAATTGTTCTTA [XGTACX_site8114],11.1 ± 0.77

row,Sequence,gcPBM binding intensity (ln)
1,GAAAATTTTTGGTGTACACAAAAAAATCCAAAAAAA [CACACA_site5042],11.7 ± 0.87
2,CATAAACTTTTTAACACACACTTATATATATATATA [CACACA_site4747],10.3 ± 0.49
3,AAAAATTCTTTTTCATCTATATGCAGAAAGAAAAAG [CACACA_negctrl_site1201],9.86 ± 0.099
4,TAATTTTTATGAAGAAGTACAAAATCTACTATCATA [XGTACX_site4985],11.1 ± 0.85
5,CTAAATAAAGTTAACACACACATAATATATATATGT [CACACA_site486],9.955 ± 0.021
6,TACATCTGTAATGTGTGTACATATATGTATATATTT [XGTACX_site1805],11.2 ± 0.64
7,GAATTTATGAACTGTGCATGTAAAAAAAACAACAAA [TGCATGCA_site449],10.2 ± 0.25
8,TATAATAATATATATTGTACACACAAAATGGGAAAA [XGTACX_site3911],11.4 ± 0.93
9,TATATGAAGCTATAGACACACATATAAAAATATAAT [CACACA_site4850],9.92 ± 0.16
10,ATATAAAAAAAAGATGAAAAAAAAAATGAAAGAAAG [CACACA_negctrl_site1266],9.87 ± 0.16
11,AATTGAAAAGAATGAAGTACACATTTGATGATACAT [XGTACX_site5182],11.5 ± 0.98
12,ATATATATAATATGATGTACATATTTATTTATATAT [XGTACX_site7333],11.2 ± 0.54
13,AATGAAATAAAATAAAGTACATATATGTAAAAGTAG [XGTACX_site5650],11.4 ± 0.79
14,TTTTTTTTTTTTTACACACACAAAATATTATCTGTA [CACACA_site5378],9.83 ± 0.42
15,AGTATTATATTTGTATGTACGTAGTAATATATAAAA [XGTACX_site528],11.4 ± 1.1
16,TTTTTCATAAATATATGTACATATATTTTATATAAC [XGTACX_site3402],11.3 ± 0.8
17,ATTTGTTTATAGGCCATAAAATATTTAATTCATTTG [CACACA_negctrl_site1824],10.2 ± 0.21
18,ATTTATATTTATGATACACACACGTATATTCACATA [CACACA_site460],10.4 ± 0.26
19,ATATATATATTTTTATGAGGCATAAGTAATATTTTT [TGCATGCA_negctrl_site317],9.88 ± 0.13
20,AATGTAATATAAATATGTACATAATATATATAATTA [XGTACX_site4762],11.1 ± 0.55
21,TTTTTATTTTTTTAGTATACGTACTAGGTTTGTTCT [XGTACX_site645],11.1 ± 0.79
22,ATATATTTATATATATGTACTTAAAACATTTCGATG [XGTACX_site328],11.2 ± 0.83
23,AAAAAAAATTAATTAGTGCAAAATATATACAAAATA [GTGCAC_site9762],10.06 ± 0.085

row,Sequence,gcPBM binding intensity (ln)
1,TAAGAAAATATTTATGTATGCATGTCCTAATATTTC [TGCATGCA_site295],10.4 ± 0.47
2,ATATAAAATATTAGTAGTACCATTAACAGTATTGTT [XGTACX_site5912],11 ± 0.55
3,ATATATATAAACATATGTACACATATATATAATACA [XGTACX_site1848],11.4 ± 0.89
4,TGTATGTATAGAAACACACATACATATATATAATAT [CACACA_site1405],9.905 ± 0.035
5,TATGAAAAAAAAAATACACACACGAGTTGTTATACA [CACACA_site3188],9.84 ± 0.071
6,AATGAAATATGGATGGGTACACATTTGATTTTATTA [XGTACX_site6155],11.4 ± 0.75
7,ATCATCTATGTTATTACACACGTTATGTTATTATAA [CACACA_site5502],9.94
8,TAACGAATTTAAATTTGTACATATATAAATATATAA [XGTACX_site2168],10.7 ± 0.49
9,TTTAGATAATTCATTACACACATGTATATTTATATA [CACACA_site7602],9.96 ± 0.15
10,TTTTTTTTTTTTTTATGTACGAAAGAAAAGCACATA [XGTACX_site8261],10.9 ± 1.2
11,AAATTATTAAAAAAAAGTACATATATATATATATAT [XGTACX_site8313],11.3 ± 1
12,ATAAATAATATATATACACACATATCTATACATATT [CACACA_site487],9.865 ± 0.064
13,TATATATATAATATTGCACACAAAATTAAAAGTAAA [CACACA_site7889],9.99 ± 0.22
14,AAAAAAAAAAAATGTGTGCACATTATTTCAACTTAA,10.5 ± 0.47
15,TATTTTATCTATTTGTGTACTTATATTTATGCAAAA [XGTACX_site1499],11.4 ± 0.88
16,ATAATACACGATTATTTTCCCTTTATGTAAATATAT [CACACA_negctrl_site1107],10 ± 0.14
17,ATTATCAATATGAAGGTGCATTTAAATAATATTTAC,9.99 ± 0.11
18,AGAAAGAAAGAATACACACACACATATATAAATATC [CACACA_site7716],10.1 ± 0.11
19,TATATATATGTGTTTACACACAATAATGAATTAAAA [CACACA_site4659],9.825 ± 0.078
20,TATGAACATAAATTTGCACACTGGATATAATATATA [CACACA_site2155],10 ± 0.12
21,TATATTCTTTATAGGTGTACTTAATAAATAAAAAAT [XGTACX_site5378],11.5 ± 0.98
22,TACGTAAAAATAGGACGTACTTATTTAGAAACCATA [XGTACX_site2498],11.5 ± 0.81
23,TACAAAATGGGGAACACACACATATATATATATATA [CACACA_site3844],10.6 ± 0.52

row,Sequence,gcPBM binding intensity (ln)
1,TTGGTACCTATAGATACACACATATATACCTATATA [CACACA_site5812],10.9 ± 0.61
2,ACTAAACTTTTATGTACACACATATAACATTAATTT [CACACA_site5276],11.5 ± 0.81
3,AAATATTATAGCACCACACACTTATTTTATTTATAT [CACACA_site7133],10.2 ± 0.092
4,TATTTTAATATGTATACATGCATACCTACTCATACA [TGCATGCA_site779],10.1 ± 0.16
5,AACTTGTATTTATACACACACACACTGTCTTTTTTT [CACACA_site7009],10.13 ± 0.057
6,TAAAATTTTATAAAGGAACACACATTTTTTTTTTTT [CACACA_site8740],10.1 ± 0.29
7,TAGACAAAATATAATGCACACTATTATTTTTATTTA [CACACA_site5508],9.87 ± 0.16
8,GTATATTATATTGGGTGTACCATATATAATATAATC [XGTACX_site8579],11.1 ± 0.7
9,TTATAAATAAAAAATACACACATATATATATATATA [CACACA_site207],9.92 ± 0.37
10,AAAAATTAACAAAAGGTGCAATTTATTTATTAACGG,9.83 ± 0.014
11,AAAAAAGTTGTATTTGCACACATAAAAAAAAGATAT [CACACA_site3839],10.4 ± 0.33
12,AATTTAAAAATGGACACACACAAAAAATAATACTTA [CACACA_site250],10.9 ± 0.59
13,TAAAAATATATATGATTGCACTTAGGACAATATATA,10.3 ± 0.36
14,GGAAACAAAAAATATATACACACTAATCATAAAAAA [CACACA_site7890],9.935 ± 0.092
15,ATTAATATATTATCATGTACACAAAAATAATTTTAT [XGTACX_site7257],11.6 ± 1
16,TATTCTCTCTTATGAACACACATTTTTATTTTCAAA [CACACA_site7554],10.2 ± 0.12
17,AAGAAAAATATATAAATAAATAAATATATAAATATA [CACACA_negctrl_site836],9.24 ± 0.38
18,AGCAAATAAATAAATAAATAAATAAATATATATATA [TGCATGCA_negctrl_site40],9.96 ± 0.88
19,ATAATTAACAAATACACACACACACGCCCACAAAAA [CACACA_site6389],10.9 ± 0.54
20,TAAATATATATTATATGTACTTATATATATATATAT [XGTACX_site4448],11.2 ± 0.78
